Some of the results follow. Most values come without repeats; read them as rough.
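Also: cells treated in 1,536-well plates, then fixed and DAPI-stained, with nuclei counted from automated high-throughput microscope images.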

The subject of the assay is RVH-421. Nature of the assay: cell count relative to DMSO control; melanoma cells; higher = more viable cells. The settings on record: library dose: standard library concentration; 72 h.
As to `CC[C@]1(O)C[C@H]2CN(CCc3c([nH]c4ccccc34)[C@@](C(=O)OC)(c3cc4c(cc3OC)N(C=O)[C@H]3[C@@](O)(C(=O)OC)[C@H](OC(C)=O)[C@]5(CC)C=CCN6CC[C@]43[C@@H]65)C2)C1` [vincristine] + COc1ccc2c(c1)CCC1C2CCC2(C)C(NCCCCCCN3C(=O)C=CC3=O)CCC12 [U73122] (first compound 0.0005 µM, partner dose 2 µM), the cell count was determined as 81.3%.

With `Cc1cc(Nc2cc(N3CCN(C)CC3)nc(Sc3ccc(NC(=O)C4CC4)cc3)n2)n[nH]1` [Tozasertib] + N#Cc1c(O)c2c(-c3ccc(-c4ccccc4O)cc3)csc2[nH]c1=O [A769662] (first compound 0.03 µM, partner dose 10 µM), the cell count came out at 104%.

The compound `Cc1cc(Nc2cc(N3CCN(C)CC3)nc(Sc3ccc(NC(=O)C4CC4)cc3)n2)n[nH]1` [Tozasertib] + Cn1cncc1[C@@](N)(c1ccc(Cl)cc1)c1ccc2c(c1)c(-c1cccc(Cl)c1)cc(=O)n2C [tipifarnib] (first compound 0.03 µM, partner dose 0.05 µM) yielded a cell count of 106%. Compound `Cc1cc(Nc2cc(N3CCN(C)CC3)nc(Sc3ccc(NC(=O)C4CC4)cc3)n2)n[nH]1` [Tozasertib] + C#Cc1cccc(Nc2ncnc3cc(OCCOC)c(OCCOC)cc23)c1 [erlotinib] (first compound 0.03 µM, partner dose 4 µM) came in with a cell count of 89.5%. Next, `Cc1cc(Nc2cc(N3CCN(C)CC3)nc(Sc3ccc(NC(=O)C4CC4)cc3)n2)n[nH]1` [Tozasertib] + COc1cc(N2CCC(N3CCN(C)CC3)CC2)ccc1Nc1ncc(Cl)c(Nc2ccccc2S(=O)(=O)C(C)C)n1 [NVP-TAE684] (first compound 0.03 µM, partner dose 0.4 µM): 91.8%. In the case of `CC[C@]1(O)C[C@H]2CN(CCc3c([nH]c4ccccc34)[C@@](C(=O)OC)(c3cc4c(cc3OC)N(C=O)[C@H]3[C@@](O)(C(=O)OC)[C@H](OC(C)=O)[C@]5(CC)C=CCN6CC[C@]43[C@@H]65)C2)C1` [vincristine] + CCc1ccc(CCOc2ccc(CC3SC(=O)NC3=O)cc2)nc1 [pioglitazone] (first compound 0.0005 µM, partner dose 10 µM), the cell count was 33.5%. The same measure for `Cc1cc(Nc2cc(N3CCN(C)CC3)nc(Sc3ccc(NC(=O)C4CC4)cc3)n2)n[nH]1` [Tozasertib] + COc1cc(Nc2ncc(F)c(Nc3ccc4c(n3)NC(=O)C(C)(C)O4)n2)cc(OC)c1OC [Tamatinib] (first compound 0.03 µM, partner dose 2 µM): 81.6%; for `Cc1cc(Nc2cc(N3CCN(C)CC3)nc(Sc3ccc(NC(=O)C4CC4)cc3)n2)n[nH]1` [Tozasertib] + C[C@@H](Oc1cc(-c2cnn(C3CCNCC3)c2)cnc1N)c1c(Cl)ccc(F)c1Cl [Crizotinib] (first compound 0.03 µM, partner dose 1 µM): 74.5%. With `CC[C@]1(O)C[C@H]2CN(CCc3c([nH]c4ccccc34)[C@@](C(=O)OC)(c3cc4c(cc3OC)N(C=O)[C@H]3[C@@](O)(C(=O)OC)[C@H](OC(C)=O)[C@]5(CC)C=CCN6CC[C@]43[C@@H]65)C2)C1` [vincristine] + CN(NC(=O)CC(=O)NN(C)C(=S)c1ccccc1)C(=S)c1ccccc1 [STA4783] (first compound 0.0005 µM, partner dose 0.03 µM), the cell count stood at 56.9%.

Compound `CC[C@]1(O)C[C@H]2CN(CCc3c([nH]c4ccccc34)[C@@](C(=O)OC)(c3cc4c(cc3OC)N(C=O)[C@H]3[C@@](O)(C(=O)OC)[C@H](OC(C)=O)[C@]5(CC)C=CCN6CC[C@]43[C@@H]65)C2)C1` [vincristine] + NC1(c2ccc(-c3nc4ccn5c(=O)[nH]nc5c4cc3-c3ccccc3)cc2)CCC1 [MK2206] (first compound 0.0005 µM, partner dose 2 µM) showed a cell count of 48.5%. Next, `CC[C@]1(O)C[C@H]2CN(CCc3c([nH]c4ccccc34)[C@@](C(=O)OC)(c3cc4c(cc3OC)N(C=O)[C@H]3[C@@](O)(C(=O)OC)[C@H](OC(C)=O)[C@]5(CC)C=CCN6CC[C@]43[C@@H]65)C2)C1` [vincristine] + O=C(O)c1ccc(-c2c[nH]c3ncc(-c4ccccc4)cc23)cc1C1CCCC1 [GSK650394] (first compound 0.0005 µM, partner dose 0.8 µM): 29.1%. In turn, `CC[C@]1(O)C[C@H]2CN(CCc3c([nH]c4ccccc34)[C@@](C(=O)OC)(c3cc4c(cc3OC)N(C=O)[C@H]3[C@@](O)(C(=O)OC)[C@H](OC(C)=O)[C@]5(CC)C=CCN6CC[C@]43[C@@H]65)C2)C1` [vincristine] + COc1ccc(C2=N[C@@H](c3ccc(Cl)cc3)[C@@H](c3ccc(Cl)cc3)N2C(=O)N2CCNC(=O)C2)c(OC(C)C)c1 [Nutlin-3] (first compound 0.0005 µM, partner dose 0.5 µM) came in with a cell count of 64.5%.

`N#CC[C@H](C1CCCC1)n1cc(-c2ncnc3[nH]ccc23)cn1` [ruxolitinib] + CC(=O)c1c(C)c2cnc(Nc3ccc(N4CCNCC4)cn3)nc2n(C2CCCC2)c1=O [palbociclib] (first compound 5 µM, partner dose 0.2 µM): the cell count came out at 45.8%.

The values above are taken from the supplement of paper PMC4604168 (melanoma cell lines).
